{"source": "the supplement of paper PMC10338343", "note": "± gives the standard deviation. The list shows a part of the results, in another mix than the full data.", "data": [{"test_system": "MIWI (PIWIL1) piRISC loaded with L1MC piRNA (30 nt)", "test": "pre-steady-state target cleavage rate (min^-1); MIWI and MILI are mouse PIWI proteins and EfPiwi is from a freshwater sponge; tags in brackets are library labels; higher = faster piRNA-guided slicing of the target", "settings": "guide: L1MC piRNA 5'p-UAACUAAAUACUAUGCAAGCUGUAGGUCCU; auxiliary factor: 500 nM mouse GTSF1", "procedure,_shortened": "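Cleave-'n-Seq: 1 nM active affinity-purified piRISC with one synthetic guide and 0.1 nM transcribed, DNA-blocked target RNA library were mixed, with or without 500 nM GTSF1 partner protein, in HEPES–potassium acetate buffer at 33 °C for 0–8 or 0–960 min. Uncleaved targets were sequenced and normalised to depth and to weakly complementary targets, three trials were pooled, and k3 was capped at 0.0001 min^-1. The pre-steady-state cleavage rate was fitted […].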", "values": [{"sequence": "UCCUGGAACAGCUUGCAUAGUAUAAAGAAA", "pre-steady-state target cleavage rate": "0.167 ± 0.043"}, {"sequence": "UGGACCUACAGCAACCAUAGUAUUUAGAAA", "pre-steady-state target cleavage rate": "0.00362 ± 0.0029"}, {"sequence": "UCCUGGUACAGCUUGCAGUAGUAUUUAGUUA", "pre-steady-state target cleavage rate": "0.00567 ± 0.0039"}, {"sequence": "AGGACCUACAGCUUGCUUAGUAUUUUCAAA", "pre-steady-state target cleavage rate": "0.195 ± 0.035"}, {"sequence": "UGGACCUACAGCUUGCAUAGUUAAUAGUAA", "pre-steady-state target cleavage rate": "0.0448 ± 0.01"}, {"sequence": "UCCUGGAUGUCCUUGCAUAGUAUUUUGAUA", "pre-steady-state target cleavage rate": "0.00674 ± 0.0041"}, {"sequence": "UCCACCUACAGCUUGCAUACUAUUUACAAA", "pre-steady-state target cleavage rate": "0.176 ± 0.031"}, {"sequence": "UCCUGGAUGUCGAAGCACAGUAUUUAGUUA", "pre-steady-state target cleavage rate": "0.00741 ± 0.0037"}, {"sequence": "UCCUGGAUGUCGAAGCAUAGUAUUUCAGUUA", "pre-steady-state target cleavage rate": "0.00491 ± 0.0043"}, {"sequence": "AGGACCUACAGCUUGCAUAGUAAAAAGAAA", "pre-steady-state target cleavage rate": "0.359 ± 0.088"}, {"sequence": "UCCACCUACAGCUUGCAUAGUAAAAAGUAA", "pre-steady-state target cleavage rate": "0.233 ± 0.044"}, {"sequence": "UCCUGGAUGUCGAACGUAAGUAAAUAGUUA", "pre-steady-state target cleavage rate": "< 0.0001"}, {"sequence": "AGGACCUACAGCUUGCAUACGUAUUUAGUUA", "pre-steady-state target cleavage rate": "0.208 ± 0.078"}, {"sequence": "UCCACCUACAGCUUGCAUAGUUAAAUCAAA [g10:g27:cont:t1A]", "pre-steady-state target cleavage rate": "0.0397 ± 0.015"}, {"sequence": "UCGACCUACAGCUUGGAUAGUAUUUACAAA", "pre-steady-state target cleavage rate": "0.179 ± 0.036"}, {"sequence": "UCCACCUACAGCUUCCAUAGUAUUUUGUUA", "pre-steady-state target cleavage rate": "0.0349 ± 0.016"}, {"sequence": "UCCUGCUACUCGUUGCAUAGUAUUUUCAAA", "pre-steady-state target cleavage rate": "0.0195 ± 0.0071"}, {"sequence": "UCCUCCUACAGCAAGCAUAGUAUUUAGUAA", "pre-steady-state target cleavage rate": "0.698 ± 0.058"}, {"sequence": "UCGACCUACAGCUUGCAAUCUAUUUAGAAA", "pre-steady-state target cleavage rate": "0.129 ± 0.033"}, {"sequence": "UCCUGGAUGUCGAACCAUAGUUAUUUAGUUA", "pre-steady-state target cleavage rate": "< 0.0001"}, {"sequence": "UCGACCUACAGCUUGCAUUAGUAUUUAGUUA", "pre-steady-state target cleavage rate": "0.264 ± 0.082"}, {"sequence": "UGGACCUACACGUUGCAUAGUAUUUUCAAA", "pre-steady-state target cleavage rate": "0.0992 ± 0.016"}, {"sequence": "UCCUGGAAGUGCUUGCAUAGUAUUUACAAA", "pre-steady-state target cleavage rate": "0.0137 ± 0.0051"}, {"sequence": "UGGACCUACAGCUACCAUAGUAUUUAGUAA", "pre-steady-state target cleavage rate": "0.31 ± 0.042"}]}]}
